# Source: the supplement of paper PMC6531468
# Some of the results follow. Values come from read counts of a selection and are noisy. Scores sum up all selected molecules that hold the word; the word was not tested alone.
# Columns and labels:
# Test in all cases: 6-mer SELEX enrichment z-score vs GST control; IMP3 is the RNA-binding protein IGF2BP3; higher = more enriched by binding
# IMP3 KH1-4 = details: construct: KH1-4 (164-579); SELEX round: R4
# Description: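 SELEX-seq with GST-tagged IMP3 KH1-4 (Pro164-Lys579) and an N40 RNA pool, round 4. 6-mer z-score of sequence-tag enrichment normalised to the corresponding GST SELEX round; RNA k-mers written as DNA (T for U).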
# IMP3 RRM1-2 = details: construct: RRM1-2 (1-163); SELEX round: R2
# IMP3 RRM1-2, sequence (chain, as listed by the source): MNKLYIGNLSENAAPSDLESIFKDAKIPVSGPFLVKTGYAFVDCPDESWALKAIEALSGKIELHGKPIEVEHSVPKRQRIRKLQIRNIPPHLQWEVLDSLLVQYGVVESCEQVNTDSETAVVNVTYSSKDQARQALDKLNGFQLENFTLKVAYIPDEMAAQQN
# Description: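 SELEX-seq with GST-tagged IMP3 RRM1-2 (Met1-Asn163) and an N40 RNA pool, round 2. 6-mer enrichment z-score normalised to GST SELEX. RNA written as DNA (T = U).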
# IMP3 full-length = IMP3 full-length (UniProt O00425); details: construct: FL IMP3 (1-579); SELEX round: R4
# UniProt O00425, sequence (O00425 whole entry): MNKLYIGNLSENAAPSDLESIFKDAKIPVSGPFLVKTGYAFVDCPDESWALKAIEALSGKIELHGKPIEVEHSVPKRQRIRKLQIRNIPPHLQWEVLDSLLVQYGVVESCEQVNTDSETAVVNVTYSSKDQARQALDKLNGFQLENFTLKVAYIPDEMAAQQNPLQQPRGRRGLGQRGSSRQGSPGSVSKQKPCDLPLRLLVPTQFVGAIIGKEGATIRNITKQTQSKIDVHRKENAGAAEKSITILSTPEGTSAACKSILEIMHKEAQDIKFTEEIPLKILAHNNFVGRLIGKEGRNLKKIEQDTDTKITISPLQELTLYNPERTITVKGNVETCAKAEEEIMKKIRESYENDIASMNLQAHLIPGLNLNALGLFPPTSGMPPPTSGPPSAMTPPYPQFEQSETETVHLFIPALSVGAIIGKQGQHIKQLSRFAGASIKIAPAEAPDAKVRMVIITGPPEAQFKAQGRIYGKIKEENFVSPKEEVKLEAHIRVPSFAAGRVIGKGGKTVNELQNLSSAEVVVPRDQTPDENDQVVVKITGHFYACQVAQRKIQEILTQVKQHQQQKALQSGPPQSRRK
# Description: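 SELEX-seq with GST-tagged full-length IMP3 and an N40 RNA pool, round 4. Each 6-mer is scored as an enrichment z-score of sequence tags containing it, normalised to the matching GST SELEX round. RNA written as DNA (T = U).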
# IMP3 KH1-2 = details: construct: KH1-2 (164-376); SELEX round: R4
# IMP3 KH1-2, sequence (chain, as listed by the source): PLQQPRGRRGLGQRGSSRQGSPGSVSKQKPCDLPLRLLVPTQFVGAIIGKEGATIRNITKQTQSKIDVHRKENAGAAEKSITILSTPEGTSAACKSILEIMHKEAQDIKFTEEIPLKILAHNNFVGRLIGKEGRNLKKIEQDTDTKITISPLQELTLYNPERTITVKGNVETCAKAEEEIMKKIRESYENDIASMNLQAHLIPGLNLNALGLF
# Description: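 SELEX-seq with GST-tagged IMP3 KH1-2 (Pro164-Phe376) and an N40 RNA pool, round 4 (stringent 300/600 mM KCl washes). 6-mer z-score of sequence-tag enrichment normalised to the corresponding GST SELEX round; RNA k-mers written as DNA (T for U).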
# IMP3 KH3-4 = details: construct: KH3-4 (377-579); SELEX round: R4
# IMP3 KH3-4, sequence (chain, as listed by the source): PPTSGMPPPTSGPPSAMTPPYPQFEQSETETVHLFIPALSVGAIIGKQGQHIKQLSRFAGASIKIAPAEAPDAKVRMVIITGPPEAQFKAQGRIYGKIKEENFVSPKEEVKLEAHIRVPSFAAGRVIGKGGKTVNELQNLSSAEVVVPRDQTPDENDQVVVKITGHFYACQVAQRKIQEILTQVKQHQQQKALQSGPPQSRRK
# Description: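 SELEX-seq with GST-tagged IMP3 KH3-4 (Pro377-Lys579) and an N40 RNA pool, round 4. 6-mer z-score of sequence-tag enrichment normalised to the corresponding GST SELEX round; RNA k-mers written as DNA (T for U).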
# IMP3 KH1-4, sequence (chain, as listed by the source): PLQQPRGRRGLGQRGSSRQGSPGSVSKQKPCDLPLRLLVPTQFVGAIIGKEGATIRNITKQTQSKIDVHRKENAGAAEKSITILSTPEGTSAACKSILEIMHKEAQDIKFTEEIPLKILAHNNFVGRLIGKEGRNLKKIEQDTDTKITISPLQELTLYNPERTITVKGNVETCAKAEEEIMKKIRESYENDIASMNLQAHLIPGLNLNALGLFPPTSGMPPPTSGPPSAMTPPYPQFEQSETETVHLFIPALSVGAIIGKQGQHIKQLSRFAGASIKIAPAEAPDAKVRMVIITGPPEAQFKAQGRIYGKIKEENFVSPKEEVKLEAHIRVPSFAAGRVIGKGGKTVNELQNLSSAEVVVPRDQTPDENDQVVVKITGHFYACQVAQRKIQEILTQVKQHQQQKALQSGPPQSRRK
Sequence,6-mer SELEX enrichment z-score (IMP3 KH1-4),6-mer SELEX enrichment z-score (IMP3 RRM1-2),6-mer SELEX enrichment z-score (IMP3 full-length),6-mer SELEX enrichment z-score (IMP3 KH1-2),6-mer SELEX enrichment z-score (IMP3 KH3-4)
CAGTCA,1.4,0.984,1.65,0.915,0.638
TGTATG,0.647,0.05,-0.099,0.359,0.709
GGCTTT,0.304,0.531,0.397,0.347,0.737
TGAACA,1.16,-0.047,0.351,1.07,1.22
GGAGGT,0.449,0.114,0.401,0.586,0.555
AACGAG,-3.57,-1.53,-2.23,-3.38,-3.01
CAAAGA,-0.822,-1.24,-1.17,-0.792,-0.301
CATCAA,1.01,2.32,2.91,0.958,0.372
CCCTAG,-0.837,-0.348,-0.722,-0.81,-0.98
ACCAGA,-0.777,-0.228,-0.842,-0.807,-1.01
CTATAT,1.55,0.097,0.341,1.37,1.67
TTAAAT,0.974,-0.319,-0.21,0.877,1.94
GGGGCA,1.42,0.159,1.21,1.71,1.4
TCAGGC,0.522,0.855,1.33,0.323,0.444
AAGTAT,0.107,-0.299,-0.367,-0.026,0.463
CCGCTC,-0.204,0.098,0.267,0.091,-0.486
GGCCGC,0.74,-0.002,1.28,0.808,0.375
CGTAAG,-1.04,-0.386,-0.823,-0.991,-0.831
ACTCAC,-0.328,1.2,-0.082,-0.196,-1.02
GTGATA,0.54,-0.361,-0.209,0.33,0.766

Sequence,6-mer SELEX enrichment z-score (IMP3 KH1-4),6-mer SELEX enrichment z-score (IMP3 RRM1-2),6-mer SELEX enrichment z-score (IMP3 full-length),6-mer SELEX enrichment z-score (IMP3 KH1-2),6-mer SELEX enrichment z-score (IMP3 KH3-4)
TCCGAA,-1.31,-1.06,-1.12,-1.07,-1.38
GGCTAG,-0.026,0.28,0.313,0.032,0.278
GAAAGT,-0.326,-0.969,-0.751,-0.564,-0.158
AGTCAA,0.263,0.068,0.275,-0.101,0.012
ATTATA,1.9,0.155,0.489,1.66,2.83
ACCCGA,-2.96,-1.66,-2.35,-2.83,-3.26
TTGGCC,0.06,0.072,0.135,-0.013,-0.092
TCTCCA,0.149,0.438,0.169,0.165,-0.212
TGAGAC,-0.733,-0.774,-0.902,-0.784,-0.595
CAGTGG,0.466,0.297,0.685,0.396,0.36
CCTCAG,-0.645,0.312,-0.017,-0.66,-0.807
GATTGT,0.269,-0.036,-0.116,0.156,0.476
AGTTTT,-0.026,0.34,-0.082,0.032,0.278
GGGGGG,1.34,0.435,0.72,2.41,1.55
CGCGAT,-0.308,-0.309,-0.037,-0.287,-0.283
CCCGGC,-0.448,-0.162,0.639,-0.426,-0.789
TTAGTT,0.247,0.557,0.137,0.238,0.395
AGTCGC,1.23,0.222,0.78,0.881,0.56
CAATTT,1.05,0.272,0.371,1.09,1.33
GCCAAC,-0.695,0.035,-0.05,-0.613,-1.04

Sequence,6-mer SELEX enrichment z-score (IMP3 KH1-4),6-mer SELEX enrichment z-score (IMP3 RRM1-2),6-mer SELEX enrichment z-score (IMP3 full-length),6-mer SELEX enrichment z-score (IMP3 KH1-2),6-mer SELEX enrichment z-score (IMP3 KH3-4)
GCCCAC,-1.41,-0.098,-0.584,-1.13,-1.82
GTGGTT,-0.403,0.504,-0.178,-0.254,-0.086
CCATAA,0.679,-0.179,-0.005,0.88,0.404
GTCGAC,-0.402,0.134,0.148,-0.414,-0.512
TTCTTG,-0.272,0.523,-0.045,-0.186,-0.074
GCTGTG,0.098,0.096,-0.047,0.062,0.047
AGCATA,-0.216,0.429,0.319,-0.214,-0.102
TGCTAA,0.094,-0.304,-0.408,-0.062,0.179
TCAGGA,0.639,0.542,0.812,0.572,0.566
GAAAAT,0.375,-1.88,-1.21,0.148,1.4
GGCGAA,-0.436,-0.287,0.352,-0.444,0.053
CCACGA,-1.72,-0.395,-1.22,-1.68,-2.01
TCCAAT,0.026,0.165,-0.239,-0.102,-0.235
TTATGG,0.647,0.262,0.2,0.426,0.855
GTCAAC,-0.372,0.319,0.337,-0.622,-0.626
GGGGAA,0.717,-0.44,0.087,0.941,0.858
CTCCAC,-0.021,0.285,-0.053,0.092,-0.801
TCTCCT,0.49,0.386,0.024,0.422,0.121
ACCAAA,-2.29,-1.18,-2.48,-2.14,-2.65
TGTATA,0.879,-0.023,0.04,0.612,1.19
